Measured values from PubChem BioAssay AID360 (National Center for Advancing Translational Sciences (NCATS), 2006).
In all, about 48,000 compounds went through this assay and about 550 (1.1%) were called active. Roughly 4% stayed inconclusive and do not appear here. Cut-off read from the data, not from the text of the source: active = potency below about 15 µM; inconclusive = mostly about 16 µM to 33 µM; inactive = weaker than that. This is one part of the list.

target: Lysosomal acid glucosylceramidase (Homo sapiens) (UniProt P04062); test: Glucocerebrosidase; conditions: purified enzyme, resorufin glucoside fluorescence (screen aimed at inhibitors), 20 min;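 note: the screen sought inhibitors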
Outline: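 Normal human glucocerebrosidase (0.2 nM final) was assayed with resorufin β-D-glucopyranoside (30 uM final) in 50mM citric acid/KH2PO4, 10mM sodium taurocholate, 0.01% tween-20, pH 5.9. Compounds were titrated; fluorescence (Ex 548, Em 600) read after 20 min at RT.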
Potency is the fitted concentration of half-maximal effect.

Sequence of UniProt P04062 (P04062 whole entry, looked up): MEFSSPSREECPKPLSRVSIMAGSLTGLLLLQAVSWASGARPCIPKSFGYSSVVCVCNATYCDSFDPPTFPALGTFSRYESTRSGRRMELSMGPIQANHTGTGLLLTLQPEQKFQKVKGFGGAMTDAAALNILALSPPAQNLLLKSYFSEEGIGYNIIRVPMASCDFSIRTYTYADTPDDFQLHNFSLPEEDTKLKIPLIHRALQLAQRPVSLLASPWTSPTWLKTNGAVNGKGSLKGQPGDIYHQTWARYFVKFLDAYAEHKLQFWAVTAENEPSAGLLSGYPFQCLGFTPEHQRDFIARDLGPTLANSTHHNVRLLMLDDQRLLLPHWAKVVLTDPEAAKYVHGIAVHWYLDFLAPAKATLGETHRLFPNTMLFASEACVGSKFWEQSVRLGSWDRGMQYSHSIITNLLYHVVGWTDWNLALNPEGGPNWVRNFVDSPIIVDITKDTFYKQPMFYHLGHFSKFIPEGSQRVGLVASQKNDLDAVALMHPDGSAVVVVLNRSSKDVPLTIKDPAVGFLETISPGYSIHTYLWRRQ

Potency, inactive:
COc1c2occc2cc2ccc(=O)oc12 > 76.9 µM
CCC(C)(C(=O)NC1CCCCC1)N(Cc1ccco1)C(=O)c1ccc2c(c1)OCO2 (stereo not given) > 76.9 µM
COc1ccc2c(CC(=O)OCC(=O)N3CCc4ccccc43)coc2c1 > 76.9 µM
Cc1cc(Cl)c(S(=O)(=O)NCC2CCCO2)cc1OCC(N)=O (stereo not given) > 76.9 µM
N#Cc1c(SCC(=O)N2CCCCC2)nsc1SCC(=O)N1CCCCC1 > 76.9 µM
O=C(O)c1ccc(NCc2cccnc2)cc1 > 76.9 µM
CC(C)n1c(=N)c(C(=O)NCCc2ccccc2)cc2c(=O)n3ccccc3nc21 > 76.9 µM
Cc1cc2oc(C(=O)NCc3ccc4c(c3)OCO4)c(C)c2cc1C > 76.9 µM
COc1ccc(OCC(=O)N2CCN(C(=O)COc3ccccc3)CC2)cc1 > 76.9 µM
CCOc1ccc(-c2csc(NC(=O)C3CCCO3)n2)cc1 (stereo not given) > 76.9 µM
O=C(NCc1ccc(F)cc1)c1cc(-c2ccco2)on1 > 76.9 µM
O=C1C=C(NCC2CCCO2)C2(CCCCC2)O1 (stereo not given) > 76.9 µM
CCOc1ncccc1C(=O)Nc1ccc(-c2cn3ccsc3n2)cc1 > 76.9 µM
COC(=O)CS(=O)(=O)c1nnc([C@H](Cc2ccccc2)NC(=O)OC(C)(C)C)o1 > 76.9 µM
O=C(Nc1ccc(F)cc1F)c1ccc(COc2c(F)c(F)cc(F)c2F)o1
Cc1cccc2sc(NC(=O)CN(C)S(=O)(=O)c3ccc(Br)s3)nc12 > 76.9 µM
O=c1c(-c2ccc(F)cc2)coc2c3c(ccc12)OCCO3 > 76.9 µM
O=C1CCCCCN1C(=O)c1ccc(C(=O)N2CCCCCC2=O)cc1 > 76.9 µM
CCOC(=O)C1CCN(C(=O)C2CCN(c3nc4ccc(OC)cc4s3)CC2)CC1 > 76.9 µM
COc1ccc(N2CCN(Cc3nc(-c4ccc(Cl)cc4Cl)no3)CC2)cc1 > 76.9 µM
Cc1cc(C)nc(Nc2n[nH]c(COc3ccccc3)n2)n1 > 76.9 µM
Cc1ccc(C(=O)C(NC(=O)c2ccco2)N2CCOCC2)cc1 (stereo not given) > 76.9 µM
COc1cc(OC)cc(-n2nnnc2SCC(=O)N2CCCC2)c1 > 76.9 µM
CN=C1SC(CC(=O)NCCc2ccc(OC)c(OC)c2)C(=O)N1C (stereo not given) > 76.9 µM
COc1cccc(-c2nnc(SCC(=O)Nc3ccc(OC)c(OC)c3)n2N)c1 > 76.9 µM
Cc1ccc(C(=O)CSc2nnc(-c3cccnc3)n2N)cc1 > 76.9 µM
O=C(NC1CCCC1)C1CC(c2ccc(F)cc2)=NO1 (stereo not given) > 76.9 µM
CCS(=O)(=O)Nc1ccc(-c2nnc(SCC(=O)c3ccc(NC(C)=O)c(OC)c3)o2)cc1 > 76.9 µM
O=C(Nc1ccc(N2CCCC2=O)cc1)c1cccc(F)c1 > 76.9 µM
N#Cc1nc(COc2ccccc2F)oc1NCCc1ccccc1
Cc1ccc(C(=O)NCCN(C)C)c(C)c1 > 76.9 µM
COC(=O)COc1cccc(NC(=O)c2ccccc2)c1 > 76.9 µM
COc1ccc(Cl)cc1NC(=O)NC(C)c1ccncc1 (stereo not given) > 76.9 µM
O=C(CCc1nc(-c2ccccc2F)no1)Nc1ccc(Oc2ccccc2)cc1 > 76.9 µM
CC(NC(=O)c1ccccc1)C(=O)NC1=NCCS1 (stereo not given) > 76.9 µM
COc1ccc(N2C(=O)C(CC(=O)O)S/C2=C\C(C)=O)cc1 (stereo not given) > 76.9 µM
CS(=O)(=O)N(CCc1ccccc1)CC(=O)N1CCN(c2ccccc2)CC1 > 76.9 µM
O=C(C1CCCN(S(=O)(=O)Cc2ccccc2)C1)N1CCCCC1 (stereo not given) > 76.9 µM
CC1(C)CC(=O)C2=C(C1)NC(=O)CC2c1cccc(F)c1 (stereo not given) > 76.9 µM
CSc1ncccc1C(=O)OCC(=O)NC1CCS(=O)(=O)C1 (stereo not given) > 76.9 µM
CCOC(=O)c1c(CN2CCC(C)CC2)oc2ccc(OC)cc12
COc1ccc(-n2c(=O)cc(N3CCc4ccccc43)[nH]c2=O)cc1 > 76.9 µM
CC1=C(C(=O)NCc2ccccc2)C(c2ccccc2OCC(N)=O)NC(=O)N1 (stereo not given) > 76.9 µM
CCCCC(=O)N(c1ccc(OC)cc1)C1C=CS(=O)(=O)C1 (stereo not given)
COc1ccccc1NC(=O)C(C)NS(=O)(=O)c1ccc(Cl)cc1 (stereo not given) > 76.9 µM
C=CCn1c(SCC(=O)Nc2nccs2)nnc1-c1cc2cccc(OC)c2o1 > 76.9 µM
CC(Sc1nnc(-c2cc3ccccc3o2)n1-c1ccccc1)C(=O)O (stereo not given) > 76.9 µM
COC(=O)c1cc(Br)c(=O)n(CC(C)C)c1 > 76.9 µM
O=C(c1ccc(Cn2cc(Br)cn2)cc1)N1CCN(c2ccccc2)CC1 > 76.9 µM
CCC(Oc1ccccc1)C(=O)NCc1cccnc1 (stereo not given) > 76.9 µM
CC(=O)Nc1ccc(S(=O)(=O)N(C)CC(=O)NC2=NCCS2)cc1 > 76.9 µM
O=C(CCn1nnc2ccccc2c1=O)N[C@@H](Cc1ccccc1)C(=O)O > 76.9 µM
O=C(CSc1nccn1-c1ccc(Cl)cc1)Nc1ccc2c(c1)OCO2
CCc1c(C)nc2cc(-c3cc(OC)cc(OC)c3)nn2c1N1CCCC1 > 76.9 µM
CCCc1cc(C(N)=O)c(NC(=O)c2ccoc2C)s1 > 76.9 µM
CC1=CCP(=O)(c2ccccc2)C1 (stereo not given) > 76.9 µM
CC(C)NCC(O)Cn1c2c(c3ccccc31)CCc1c-2cnn1-c1ccccc1 (stereo not given) > 76.9 µM
CCOC(=O)C1(CCSC)NC(c2ccco2)C2C(=O)N(C)C(=O)C21 (stereo not given) > 76.9 µM
Cc1cc(C)nc(N2CCC(C(=O)NCc3ccco3)CC2)n1 > 76.9 µM
CCOc1cc(C(=O)CSc2nnc(CNc3ccc(Cl)cc3)o2)ccc1NC(=O)CC > 76.9 µM
COc1ccc(-c2cc(C(=O)NCC(C)C)no2)cc1 > 76.9 µM
O=C(CSc1nnc(COc2cccc3cccnc23)o1)N1CCc2ccccc21 > 76.9 µM
CCOC(=O)CSc1nnc([C@H](Cc2ccccc2)NC(=O)OC(C)(C)C)o1 > 76.9 µM
CCOc1ccc2nc(NC(=O)CSc3nnnn3C3CCCCC3)sc2c1 > 76.9 µM
CCn1c(SCC(=O)Nc2nc3ccccc3s2)nc2c(c1=O)SC(C)C2 (stereo not given) > 76.9 µM
Cc1cccc(-n2nnc(C(=O)NCc3ccc4c(c3)OCO4)c2N)c1 > 76.9 µM
COc1ccc(NC(=O)CSc2nc3c(c(=O)n2-c2ccccc2)SCC3)c(OC)c1 > 76.9 µM
COCCNC(=O)CSc1nc2ccccc2c(=O)n1CCCC(=O)NCc1ccccc1 > 76.9 µM
CCOc1nc(-c2ccccc2)ccc1-c1noc(-c2ccc(OC)c(OC)c2)n1 > 76.9 µM
Cc1cc(C)cc(NC(=O)c2cc(S(=O)(=O)NCc3ccco3)ccc2F)c1 > 76.9 µM
CN(C(=O)c1ccno1)c1nnc(-c2cccnc2)s1 > 76.9 µM
COc1ccc2c(=O)c3c(=O)n(Cc4ccco4)c(C4CCCCC4)nc3oc2c1 > 76.9 µM
COc1cc(C2C(C#N)=C(N)Oc3n[nH]c(C)c32)cc2c1OCO2 (stereo not given) > 76.9 µM
CCOc1ccc(C2/C(=C(\O)c3c(C)[nH]c(C(=O)OC)c3C)C(=O)C(=O)N2CCN(C)C)cc1 (stereo not given) > 76.9 µM
CC(C)(C)c1ccc(OCc2nc(-c3ccccn3)no2)c(Br)c1 > 76.9 µM
CCCCOC(=O)Cn1cnc2ccc(Br)cc2c1=O > 76.9 µM
CC1CCCCC1NS(=O)(=O)c1ccc(S(=O)(=O)N2CCCC2)cc1 (stereo not given) > 76.9 µM
COC(=O)c1[nH]c(C)c(/C(O)=C2\C(=O)C(=O)N(CCN(C)C)C2c2ccc(OC)cc2)c1C (stereo not given) > 76.9 µM
CCCCN(CC)CCNC(=O)Cn1cnc2sc(C)c(S(=O)(=O)N3CCOCC3)c2c1=O > 76.9 µM
Cc1c(-c2ccccc2)c(P(=O)(N2CCOCC2)N2CCOCC2)c2ccccn12 > 76.9 µM
O=C(c1ccc2c3c(cccc13)CC2)N1CCN(c2ncccn2)CC1 > 76.9 µM
O=C(O)CNC(=O)c1ccc2c(c1)OCCO2 > 76.9 µM
CC1(c2ccccc2Cl)NC(=O)N(CC(=O)NC(=O)NCc2ccco2)C1=O (stereo not given) > 76.9 µM
CCOC(=O)C1=C(C)N=C2SC(CC)C(=O)N2C1c1cccc(F)c1 (stereo not given) > 76.9 µM
Cc1ccc(C2(C)NC(=O)N(Cc3c(C)noc3C)C2=O)cc1 (stereo not given)
Cc1cc(C)n(-c2ccc(C(=O)OCC(=O)c3ccc(Br)s3)cc2)n1 > 76.9 µM
Cc1cc(C)n2nc(SCc3ncc(-c4ccccc4)o3)nc2n1 > 76.9 µM
CC(C)N1C[C@@]23C=C[C@@H](O2)C(C(=O)OCc2ccccc2)[C@H]3C1=O (stereo not given in full) > 76.9 µM
COC(=O)C1=C(C)n2nnnc2NC1c1ccc(Cl)cc1 (stereo not given) > 76.9 µM
Cc1cc(NC(=O)CSc2nnnn2C2CCCC2)no1 > 76.9 µM
